This is an account of results in patent CN113214400A (FUKANG SHANGHAI HEALTH TECH CO LTD, dated 2021).

For this experiment, the target named is T1, 人VEGF抗原 (WBP325-hPro1, Sino Biological, 11066-HNAB) (human, UniProt P15692-4 27-191).
T1 sequence (looked up): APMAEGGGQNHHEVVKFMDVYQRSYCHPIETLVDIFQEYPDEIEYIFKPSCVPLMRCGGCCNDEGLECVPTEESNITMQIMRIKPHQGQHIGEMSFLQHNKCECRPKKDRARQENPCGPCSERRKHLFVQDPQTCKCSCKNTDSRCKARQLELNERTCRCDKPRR
Kind of experiment: cell-based or functional assay.

B1: W3256-U15T2.G6-1.uIgG1 (bispecific antibody)
heavy: EVQLVESGGGLVQPGGSLRLSCAASGYTFTNYGMNWVRQAPGKGLEWVGWINTYTGEPTYAADFKRRFTFSLDTSKSTAYLQMNSLRAEDTAVYYCAKYPHYYGSSHWYFDVWGQGTLVTVSSASTKGPSVFPLAPSSKSTSGGTAALGCLVKDYFPEPVTVSWNSGALTSGVHTFPAVLQSSGLYSLSSVVTVPSSSLGTQTYICNVNHKPSNTKVDKRV[human IgG1 Fc cut from this listing]
light: EVQLVESGGGLVQPGGSLRLSCAASGHFSNLAVNWFRQAPGKERELVAGILWSGGSTFYADSVKGRFTISRGNAENMLYLQMNSLRAEDTAVYYCNTGTNWGQGTLVTVSSGGGGSGGGGSDIQMTQSPSSLSASVGDRVTITCSASQDISNYLNWYQQKPGKAPKVLIYFTSSLHSGVPSRFSGSGSGTDFTLTISSLQPEDFATYYCQQYSTVPWTFGQGTKVEIKRTVAAPSVFIFPPSDEQLKSGTASVVCLLNNFYPREAKVQWKVDNALQSGNSQESVTEQDSKDSTYSLSSTLTLSKADYEKHKVYACEVTHQGLSSPVTKSFNRGEC
With B1, the “VEGF诱导的HUVEC增殖抑制 IC50” value was approximately 12 nM.
